Test results published in the supplement of paper PMC4604168 (melanoma cell lines).
The other results are listed elsewhere or left out. Repeats are few or missing, and single values can be far off.

What follows are molecules tested on LB2518-MEL (assay: cell count relative to DMSO control; melanoma cells; higher = more viable cells). Settings: library dose: standard library concentration; 72 h.
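Further: cells treated in 1,536-well plates, then fixed and DAPI-stained, with nuclei counted from automated high-throughput microscope images.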

SMILES | cell count [%]
CCCS(=O)(=O)Nc1ccc(F)c(C(=O)c2c[nH]c3ncc(Cl)cc23)c1F + COc1ccc2c(c1)CCC1C2CCC2(C)C(NCCCCCCN3C(=O)C=CC3=O)CCC12 [U73122] (first compound 0.4 µM, partner dose 2 µM) | 86.6
CCCS(=O)(=O)Nc1ccc(F)c(C(=O)c2c[nH]c3ncc(Cl)cc23)c1F + C#Cc1cccc(Nc2ncnc3cc(OCCOC)c(OCCOC)cc23)c1 [erlotinib] (first compound 0.4 µM, partner dose 4 µM) | 72.6
CS(=O)(=O)c1ccc(C(=O)Nc2ccc(Cl)c(-c3ccccn3)c2)c(Cl)c1 [vismodegib] + COc1ccc(Cl)c(Nc2nc3ccccc3nc2NS(=O)(=O)c2cccc(NC(=O)C(C)(C)N)c2)c1 [XL147] (first compound 5 µM, partner dose 4 µM) | 81.4
CS(=O)(=O)c1ccc(C(=O)Nc2ccc(Cl)c(-c3ccccn3)c2)c(Cl)c1 [vismodegib] + Cn1c(Nc2ccc(C(F)(F)F)cc2)nc2cc(Oc3ccnc(-c4ncc(C(F)(F)F)[nH]4)c3)ccc21 [CHIR265] (first compound 5 µM, partner dose 0.4 µM) | 41.8
C=C(c1ccc(C(=O)O)cc1)c1cc2c(cc1C)C(C)(C)CCC2(C)C [Bexarotene] + C=CCn1c(=O)c2cnc(Nc3ccc(N4CCN(C)CC4)cc3)nc2n1-c1cccc(C(C)(C)O)n1 [MK1775] (first compound 10 µM, partner dose 0.1 µM) | 68
CS(=O)(=O)c1ccc(C(=O)Nc2ccc(Cl)c(-c3ccccn3)c2)c(Cl)c1 [vismodegib] + Oc1cc(-c2nc(-c3ccccc3)[nH]c2-c2ccncc2)ccc1Cl [L779450] (first compound 5 µM, partner dose 1 µM) | 83.7
CN(c1ncccc1CNc1nc(Nc2ccc3c(c2)CC(=O)N3)ncc1C(F)(F)F)S(C)(=O)=O + C=C(c1ccc(C(=O)O)cc1)c1cc2c(cc1C)C(C)(C)CCC2(C)C [Bexarotene] (first compound 0.4 µM, partner dose 10 µM) | 93.8
CS(=O)(=O)c1ccc(C(=O)Nc2ccc(Cl)c(-c3ccccn3)c2)c(Cl)c1 [vismodegib] + O=C1NC(=O)/C(=C/c2ccc(-c3ccc(F)cc3O)o2)S1 [AS252424] (first compound 5 µM, partner dose 5 µM) | 113
NC1(c2ccc(-c3nc4ccn5c(=O)[nH]nc5c4cc3-c3ccccc3)cc2)CCC1 + CN(NC(=O)CC(=O)NN(C)C(=S)c1ccccc1)C(=S)c1ccccc1 [STA4783] (first compound 2 µM, partner dose 0.03 µM) | 22.8
CS(=O)(=O)c1ccc(C(=O)Nc2ccc(Cl)c(-c3ccccn3)c2)c(Cl)c1 [vismodegib] + NC1(c2ccc(-c3nc4ccn5c(=O)[nH]nc5c4cc3-c3ccccc3)cc2)CCC1 [MK2206] (first compound 5 µM, partner dose 2 µM) | 85.8
CN(c1ncccc1CNc1nc(Nc2ccc3c(c2)CC(=O)N3)ncc1C(F)(F)F)S(C)(=O)=O + O=C(CCCCCCC(=O)Nc1ccccc1)NO [vorinostat] (first compound 0.4 µM, partner dose 0.4 µM) | 78.7
CS(=O)(=O)c1ccc(C(=O)Nc2ccc(Cl)c(-c3ccccn3)c2)c(Cl)c1 [vismodegib] + Nc1ncn([C@H]2C[C@H](O)[C@@H](CO)O2)c(=O)n1 [decitabine] (first compound 5 µM, partner dose 0.5 µM) | 99.2
CN(c1ncccc1CNc1nc(Nc2ccc3c(c2)CC(=O)N3)ncc1C(F)(F)F)S(C)(=O)=O + O=C(Nc1cccc(Cl)c1)Nc1ncc(CCNc2ncnc3ccsc23)s1 [SNS314] (first compound 0.4 µM, partner dose 0.004 µM) | 81.7
C=C(c1ccc(C(=O)O)cc1)c1cc2c(cc1C)C(C)(C)CCC2(C)C [Bexarotene] + COc1ccc(-c2ccc3c(N4CCOCC4)nc(N4C[C@@H](C)O[C@@H](C)C4)nc3n2)cc1CO [KU0063794] (first compound 10 µM, partner dose 0.1 µM) | 78.4
C=C(c1ccc(C(=O)O)cc1)c1cc2c(cc1C)C(C)(C)CCC2(C)C [Bexarotene] + Cn1cncc1[C@@](N)(c1ccc(Cl)cc1)c1ccc2c(c1)c(-c1cccc(Cl)c1)cc(=O)n2C [tipifarnib] (first compound 10 µM, partner dose 0.05 µM) | 86.3
CCCS(=O)(=O)Nc1ccc(F)c(C(=O)c2c[nH]c3ncc(Cl)cc23)c1F + CCN(CC)CCCCNc1ncc2cc(-c3cc(OC)cc(OC)c3)c(NC(=O)NC(C)(C)C)nc2n1 [PD173074] (first compound 0.4 µM, partner dose 0.5 µM) | 104

SMILES | cell count [%]
CN(c1ncccc1CNc1nc(Nc2ccc3c(c2)CC(=O)N3)ncc1C(F)(F)F)S(C)(=O)=O + Cn1c(Nc2ccc(C(F)(F)F)cc2)nc2cc(Oc3ccnc(-c4ncc(C(F)(F)F)[nH]4)c3)ccc21 [CHIR265] (first compound 0.4 µM, partner dose 0.4 µM) | 24.1
C=C(c1ccc(C(=O)O)cc1)c1cc2c(cc1C)C(C)(C)CCC2(C)C [Bexarotene] + CC(=O)c1c(C)c2cnc(Nc3ccc(N4CCNCC4)cn3)nc2n(C2CCCC2)c1=O [palbociclib] (first compound 10 µM, partner dose 0.2 µM) | 59.8
C=C(c1ccc(C(=O)O)cc1)c1cc2c(cc1C)C(C)(C)CCC2(C)C [Bexarotene] + Cc1nc(Nc2ncc(C(=O)Nc3c(C)cccc3Cl)s2)cc(N2CCN(CCO)CC2)n1 [dasatanib] (first compound 10 µM, partner dose 0.02 µM) | 97.3
CCCS(=O)(=O)Nc1ccc(F)c(C(=O)c2c[nH]c3ncc(Cl)cc23)c1F + NCC(=O)Nc1ccc(-n2nc(C(F)(F)F)cc2-c2ccc3c(ccc4ccccc43)c2)cc1 [OSU03012] (first compound 0.4 µM, partner dose 5 µM) | 67.8
NC1(c2ccc(-c3nc4ccn5c(=O)[nH]nc5c4cc3-c3ccccc3)cc2)CCC1 + OCCn1cc(-c2cnc3nnn(Cc4ccc5ncccc5c4)c3n2)cn1 [PF04217903] (first compound 2 µM, partner dose 5 µM) | 74.2
C=C(c1ccc(C(=O)O)cc1)c1cc2c(cc1C)C(C)(C)CCC2(C)C [Bexarotene] + C#Cc1cccc(Nc2ncnc3cc(OCCOC)c(OCCOC)cc23)c1 [erlotinib] (first compound 10 µM, partner dose 4 µM) | 78.4
CS(=O)(=O)c1ccc(C(=O)Nc2ccc(Cl)c(-c3ccccn3)c2)c(Cl)c1 [vismodegib] + CC(C)CCN1c2nc(Nc3cc(F)c(O)c(F)c3)ncc2N(C)C(=O)C1C [BID1870] (first compound 5 µM, partner dose 1 µM) | 90.5
NC1(c2ccc(-c3nc4ccn5c(=O)[nH]nc5c4cc3-c3ccccc3)cc2)CCC1 + COc1cc2c(Oc3ccc4[nH]c(C)cc4c3F)ncnc2cc1OCCCN1CCCC1 [cediranib] (first compound 2 µM, partner dose 2 µM) | 87.6
C=C(c1ccc(C(=O)O)cc1)c1cc2c(cc1C)C(C)(C)CCC2(C)C [Bexarotene] + COc1ccc2c(c1)CCC1C2CCC2(C)C(NCCCCCCN3C(=O)C=CC3=O)CCC12 [U73122] (first compound 10 µM, partner dose 2 µM) | 87.9
NC1(c2ccc(-c3nc4ccn5c(=O)[nH]nc5c4cc3-c3ccccc3)cc2)CCC1 + CS(=O)(=O)CCNCc1ccc(-c2ccc3ncnc(Nc4ccc(OCc5cccc(F)c5)c(Cl)c4)c3c2)o1 [lapatinib] (first compound 2 µM, partner dose 4 µM) | 66.2
CS(=O)(=O)c1ccc(C(=O)Nc2ccc(Cl)c(-c3ccccn3)c2)c(Cl)c1 [vismodegib] + COCC[n+]1c2c(n(Cc3cnccn3)c1C)C(=O)c1ccccc1C2=O [YM155] (first compound 5 µM, partner dose 0.002 µM) | 55
CCCS(=O)(=O)Nc1ccc(F)c(C(=O)c2c[nH]c3ncc(Cl)cc23)c1F + CC(=O)c1c(C)c2cnc(Nc3ccc(N4CCNCC4)cn3)nc2n(C2CCCC2)c1=O [palbociclib] (first compound 0.4 µM, partner dose 0.2 µM) | 69
C=C(c1ccc(C(=O)O)cc1)c1cc2c(cc1C)C(C)(C)CCC2(C)C [Bexarotene] + O=C(O)C(=O)Nc1sc2c(c1C(=O)O)CCNC2 [TCS401] (first compound 10 µM, partner dose 8.33333 µM) | 109
CCCS(=O)(=O)Nc1ccc(F)c(C(=O)c2c[nH]c3ncc(Cl)cc23)c1F + Nc1nc(F)nc2c1ncn2[C@@H]1O[C@H](CO)[C@@H](O)[C@@H]1O [fludarabine] (first compound 0.4 µM, partner dose 1 µM) | 118
NC1(c2ccc(-c3nc4ccn5c(=O)[nH]nc5c4cc3-c3ccccc3)cc2)CCC1 + COc1ccc2c(c1)CCC1C2CCC2(C)C(NCCCCCCN3C(=O)C=CC3=O)CCC12 [U73122] (first compound 2 µM, partner dose 2 µM) | 77.7
CS(=O)(=O)c1ccc(C(=O)Nc2ccc(Cl)c(-c3ccccn3)c2)c(Cl)c1 [vismodegib] + COc1cc(N2CCC(N3CCN(C)CC3)CC2)ccc1Nc1ncc(Cl)c(Nc2ccccc2S(=O)(=O)C(C)C)n1 [NVP-TAE684] (first compound 5 µM, partner dose 0.4 µM) | 108
